Measured values reported in PubChem BioAssay (NCATS).
Inconclusive results, whose numbers are uncertain, are shown with a selection of clear calls. A potency beside an inconclusive call is a rough fit, not a confirmed value. The source made the active and inactive calls. The call rests on the fitted dose curve; in most records, active means well fitted inhibition curve with a large enough effect; inconclusive means small, poorly fitted or top-dose-only effect; inactive means no such curve, though single readings can be large or run the other way.

Each compound was assayed against Muscarinic acetylcholine receptor M1 (Rattus norvegicus) (UniProt P08482) (assay: qHTS Assay for Antagonists of Acetylcholine Muscarinic M1 Receptor: Measurement of IP-One Response (AID 944; further: nearly all actives have a fitted effect of over 75% in size)). Settings: CHO-M1 cells, IP-One HTRF, antagonist mode; series mostly up to 46.1 µM.
Potency means the concentration at half of the fitted maximal effect; tags describe the fitted curve by direction and shape.

UniProt P08482, sequence (P08482 whole entry, looked up): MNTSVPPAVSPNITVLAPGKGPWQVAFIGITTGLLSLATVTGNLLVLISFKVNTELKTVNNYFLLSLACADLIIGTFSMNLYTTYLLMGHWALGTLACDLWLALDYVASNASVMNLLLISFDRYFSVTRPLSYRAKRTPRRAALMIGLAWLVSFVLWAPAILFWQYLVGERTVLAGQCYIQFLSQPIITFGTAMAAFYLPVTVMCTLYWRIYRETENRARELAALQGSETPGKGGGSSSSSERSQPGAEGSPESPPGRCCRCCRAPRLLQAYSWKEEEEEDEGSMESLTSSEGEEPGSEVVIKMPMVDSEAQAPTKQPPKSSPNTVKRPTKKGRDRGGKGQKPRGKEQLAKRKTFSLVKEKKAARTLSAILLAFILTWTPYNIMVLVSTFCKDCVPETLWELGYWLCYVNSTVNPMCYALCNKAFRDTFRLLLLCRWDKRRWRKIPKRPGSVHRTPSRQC

Compound | Potency
O=C(O)CCC(=O)N1CCC[C@H]1C(=O)O | inactive
COC(=O)[C@H]1[C@H]2C[C@H]3c4[nH]c5ccccc5c4CCN3C[C@@H]2CC[C@@H]1O | inconclusive: 31.6 µM [inhibitor, partial curve, poor fit]
OC[C@@H]1NC[C@@H](O)[C@H]1O | inconclusive: 31.6 µM [inhibitor, partial curve, poor fit]
